Test results published in PubChem BioAssay AID2546 (National Center for Advancing Translational Sciences (NCATS), 2010).
Out of some 310,000 compounds screened, about 11,000 (3.5%) were called active. The shares of active, inactive and inconclusive entries below differ from those in the screen. Calls come from the whole dose curve; as a rule, active = well fitted inhibition curve with a large enough effect; inconclusive = small, poorly fitted or top-dose-only effect, or effect the other way; inactive = flat fitted curve, though single readings scatter. Potencies of inconclusive entries are left out as doubtful fits.
% is set by controls: 0 for no effect and ±100 for the full control effect; potency is the fitted concentration of half-maximal effect; tags give direction and shape of the fitted curve.

Assay: VP16 counterscreen qHTS for inhibitors of ROR gamma transcriptional activity;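 note: Gal4-VP16 expression switched on by copper sulfate through the metallothionein promoter; nearly all actives have a fitted effect of over 50% in size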
Settings: Drosophila S2 Gal4-VP16 UAS-luciferase, luminescence, 20 h; activity, negative = inhibition: at 53.6 µM (top of the series)
In the case of Cc1ccc(C)c(-n2c(C)cc(/C=N/NC(=O)c3c(C)nc4cc(C)ccn34)c2C)c1, the Potency is reported as active: 14.1 µM. With O=C(CSc1nnc(SCc2ccccc2)s1)NNC(=S)Nc1ccccc1 the Potency was active: 12.6 µM. For CC1CCCCN1S(=O)(=O)c1ccc(C(=O)Nc2nnc(-c3ccncc3)o2)cc1 (configuration not stated), the “activity, negative = inhibition” value was inactive: 7.53%. For S=C(Nc1ccc(Oc2ccccc2)cc1)NC1CCCC1, the Potency was active: 5.01 µM. With O=C1OCCC1Sc1nnc(-c2ccc(Cl)cc2)n1Cc1ccccc1 (configuration not stated) the Potency was inconclusive [inhibitor, single point]. In the case of CCc1cc2c(=O)c(-c3ccc4c(c3)OCCO4)coc2cc1OC(=O)c1ccco1, the Potency is reported as inconclusive [inhibitor, full curve, poor fit]. For COc1cc(/C(C)=N/Nc2ccc(C(=O)O)cc2)cc(OC)c1OC, the Potency was inconclusive [inhibitor, partial curve]. With CCCCn1c(=O)n(C)c(=O)c2c(C(F)(F)F)cc(-c3ccncc3)nc21 the “activity, negative = inhibition” value was inactive: 1.8%. In the case of COC(=O)CN1C(=S)N(Cc2ccccc2)C(=O)C1CC(=O)Nc1ccc(Br)cc1 (configuration not stated), the “activity, negative = inhibition” value is reported as inactive: 0.774%. With CCCC(=O)NC(c1ccc(OC)c(OC)c1)c1cc(Cl)c2cccnc2c1O (configuration not stated) the Potency was active: 5.01 µM. With O=C(COc1ccccc1-c1ccccc1)NCCN1C(=O)S/C(=C\c2cccnc2)C1=O the Potency was active: 20 µM. With COc1cc2c(cc1NC(=O)CN(C)Cc1ccc(OC)c(OC)c1)oc1ccccc12 the “activity, negative = inhibition” value was inactive: -8.83%. In the case of CN(C)CCNC(=O)COc1ccc(C23CC4CC(CC(C4)C2)C3)cc1, the Potency is reported as inconclusive [inhibitor, single point]. For O=C(Nc1nc2ccc3ccccc3c2s1)c1ccc(N2CCCCC2)c([N+](=O)[O-])c1, the “activity, negative = inhibition” value was inactive: -28.9%. With COc1cc(/C=C2/SC(=S)N(CC(=O)Nc3nc4ccccc4s3)C2=O)cc(OC)c1OC the “activity, negative = inhibition” value was inactive: -1.76%. In the case of Cc1ccccc1NC(=S)N(CCN(C)C)C(C)c1cccnc1 (configuration not stated), the activity, negative = inhibition is reported as inactive: -4.03% [at 10 µM]. With CNc1ccc(/C=C(\C#N)c2ccccn2)cc1[N+](=O)[O-] the Potency was inconclusive [activator, single point]. For Cc1cccc(NC(=S)Nc2ccccn2)c1C, the Potency was active: 1.78 µM. For CNC(=S)N/N=C/c1c(C)cccc1Cl, the Potency was active: 3.98 µM. With S=c1[nH]nc(-c2ccc(Cl)cc2)n1-c1ccc2c(c1)OCCO2 the Potency was active: 7.08 µM. For O=C(NC(=S)NCCC1=CCCCC1)c1cccnc1, the Potency was inconclusive [inhibitor, single point]. In the case of Cc1csc(NC(=O)CCCSc2nc3ccccc3s2)n1, the Potency is reported as active: 2 µM. In the case of Cc1ccccc1/C=N/Nc1ccnc2cc(Cl)ccc12, the Potency is reported as inconclusive [inhibitor, single point]. In the case of CCCn1c2ccccc2c2nnc(SCc3[nH]c(=O)[nH]c3C(=O)CCCCC(=O)OCC)nc21, the Potency is reported as inconclusive [inhibitor, single point]. With C=CCNC(=O)c1cc(-c2ccc3c(c2)OCO3)on1 the Potency was inconclusive [inhibitor, partial curve]. In the case of COCCCNC(=O)CN(CCc1ccccc1)S(=O)(=O)c1ccc(C)cc1, the Potency is reported as inconclusive [inhibitor, single point]. With O=C(Nc1nc2ccc(S(=O)(=O)N3CCCC3)cc2s1)c1ccccn1 the Potency was inconclusive [inhibitor, full curve]. With C[C@H](NC(=O)c1nc[nH]c1C(=O)N1CCN(c2ccccc2)CC1)C(=O)OC(C)(C)C the Potency was inconclusive [inhibitor, single point]. For CCOC(=O)c1sc(NC(=O)c2cc(-c3ccccc3)nc3ccccc23)c(C#N)c1C, the Potency was inconclusive [inhibitor, partial curve]. In the case of COC(=O)c1cc(CSC(=N)N)ccc1OCCC(C)C, the Potency is reported as inconclusive [inhibitor, single point]. For Clc1ccc(Oc2cccc(/C=N/n3cnnc3)c2)cc1, the Potency was inconclusive [inhibitor, single point]. In the case of O=C(Nc1cc(C(F)(F)F)ccc1Cl)C(Sc1ccccn1)c1ccccc1 (configuration not stated), the Potency is reported as inconclusive [inhibitor, single point]. In the case of COc1ccc(/C=N/NC(=O)CCC(=O)Nc2ccc(Br)cc2)c(OC)c1, the Potency is reported as inconclusive [inhibitor, partial curve]. With Fc1ccc(-n2cc(-c3ccccc3)c3c(NN4CCOCC4)ncnc32)cc1 the Potency was active: 10 µM. For Cn1c(CSCc2ccc(Cl)cc2)n[nH]c1=S, the Potency was active: 12.6 µM. With C(=N\NC(=Nc1ccccc1)c1ccccn1)/c1ccccn1 the Potency was active: 3.16 µM. In the case of CC/C(C)=N\NC(=O)CNC(=O)c1ccc(Cl)cc1Cl, the Potency is reported as inconclusive [inhibitor, single point]. In the case of O=C(NC(=S)Nc1ccccc1N1CCCC1)c1ccccc1[N+](=O)[O-], the Potency is reported as active: 3.98 µM. With Cc1ccccc1CN1C(=O)/C(=C\c2ccc(C(=O)NCCN3CCOCC3)cc2)Sc2ccccc21 the Potency was inconclusive [inhibitor, single point]. For COc1ccccc1CNC(=S)NCCc1ccccc1, the Potency was inconclusive [inhibitor, single point]. In the case of O=C(Cn1cnc2ccccc2c1=O)c1ccc(Cl)cc1, the Potency is reported as inconclusive [activator, full curve, poor fit]. For Cc1ccc(C(=O)NC2CCCCCCC2)c(Cl)c1, the Potency was active: 8.91 µM. For Cc1ccc(C(=O)NC(=S)NNC(=O)COc2ccccc2C)cc1, the Potency was inconclusive [inhibitor, single point]. In the case of Cc1ccc(S(=O)(=O)Nc2cccnc2)c(C)c1C, the “activity, negative = inhibition” value is reported as inactive: -6.06%. In the case of CCOC(=O)c1ccc(NS(=O)(=O)c2ccc3c(c2)n(C)c(=O)n3C)cc1, the Potency is reported as inconclusive [inhibitor, single point]. With CN(c1ccc(O)cc1)c1nc(-c2ccccc2)cs1 the Potency was inconclusive [inhibitor, single point]. For CC(C)(C)CC(C)(C)N1CNC(=S)NC1, the Potency was inconclusive [inhibitor, single point].
